According to the supplement of paper PMC3334620:
In all, about 33,000 sequences were measured (“E-score (-0.5 to 0.5)”: median about -0.036, highest 2% from about 0.37 on). Some of the results follow.

What follows are sequences tested against T1, Yer064c (UniProt P40041) (assay: PBM E-score (8-mer binding enrichment) (E-score (-0.5 to 0.5)); higher = stronger / more preferred TF binding; most listed sequences are background and not binding sites). Conditions: protein concentration: 200 nM; construct: GST-full length.
T1 sequence: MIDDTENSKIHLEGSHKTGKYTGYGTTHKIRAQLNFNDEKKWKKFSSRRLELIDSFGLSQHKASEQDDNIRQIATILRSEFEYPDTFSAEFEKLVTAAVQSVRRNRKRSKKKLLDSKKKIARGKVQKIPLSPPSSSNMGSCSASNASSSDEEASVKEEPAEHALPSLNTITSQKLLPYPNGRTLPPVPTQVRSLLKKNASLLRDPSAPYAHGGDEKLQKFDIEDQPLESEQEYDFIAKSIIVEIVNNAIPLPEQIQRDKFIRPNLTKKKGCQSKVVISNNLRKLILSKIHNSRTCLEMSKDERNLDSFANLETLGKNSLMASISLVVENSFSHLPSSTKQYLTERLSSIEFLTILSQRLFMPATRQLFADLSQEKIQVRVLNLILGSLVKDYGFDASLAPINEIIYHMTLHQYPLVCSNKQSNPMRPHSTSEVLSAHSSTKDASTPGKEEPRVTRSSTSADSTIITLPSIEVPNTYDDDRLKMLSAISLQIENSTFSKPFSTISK
Procedure, shortened: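 Yeast transcription factors carrying a GST tag, as full-length proteins or DNA-binding domains, were produced by PURExpress in vitro transcription/translation. About 100-200 nM protein was applied to universal all-10-mer Agilent arrays, double-stranded by primer extension on fresh or once-stripped slides. Bound protein was detected with fluorescent anti-GST, and scans were normalised with masliner. The Universal PBM Analysis Suite gave each ungapped eight-base word, pooled with its reverse complement, an E-score, a modified Wilcoxon-Mann-Whitney statistic.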
In the case of CATTTCCC, the “PBM E-score” value was -0.0886.
For ATAATGCC, the “PBM E-score” value was 0.045.
With TACTCTGA the “PBM E-score” value was 0.156.
In the case of GCGTGCAC, the “PBM E-score” value was -0.0897.
In the case of ATGTTGGA, the “PBM E-score” value was 0.109.
GATACATC was tested, and the “PBM E-score” value was 0.0889.
ATGTCTAC was tested, and the “PBM E-score” value was 0.197.
For AAAAAACT, the “PBM E-score” value was 0.0554.
In the case of GGTTTTCA, the “PBM E-score” value was -0.0126.
GCTTTCCA was tested, and the “PBM E-score” value was -0.116.
For ACTTTAGC, the “PBM E-score” value was 0.104.
AGGGGAAC was tested, and the “PBM E-score” value was -0.202.
CTCCAAAG was tested, and the “PBM E-score” value was 0.103.
In the case of AAGATGCC, the “PBM E-score” value was -0.214.
In the case of AGGTATGG, the “PBM E-score” value was -0.0916.
In the case of CCTACTCG, the “PBM E-score” value was -0.0344.
With CATAAACC the “PBM E-score” value was 0.113.
For AGGCCGAG, the “PBM E-score” value was -0.0585.
In the case of TGGCTGAA, the “PBM E-score” value was -0.00309.
In the case of ATGTCGGG, the “PBM E-score” value was -0.0729.
With CAGATCGA the “PBM E-score” value was 0.00612.
With GGAAATGA the “PBM E-score” value was 0.0982.
For GATAAGGA, the “PBM E-score” value was 0.0693.
For AACAACTG, the “PBM E-score” value was -0.0896.
AACACTAA was tested, and the “PBM E-score” value was 0.0299.
In the case of CGCTAGCA, the “PBM E-score” value was -0.243.
In the case of AATCACGT, the “PBM E-score” value was 0.382.
For GCACGAAC, the “PBM E-score” value was 0.0225.
In the case of AGAGCACG, the “PBM E-score” value was -0.101.
CCATCTAA was tested, and the “PBM E-score” value was -0.0644.
GGAATCAC was tested, and the “PBM E-score” value was 0.418.
AAATTAAG was tested, and the “PBM E-score” value was 0.00171.
In the case of AGTTATTA, the “PBM E-score” value was 0.0831.
For CCATGCGG, the “PBM E-score” value was -0.154.
CTATAACC was tested, and the “PBM E-score” value was -0.119.
With CTTCCTGC the “PBM E-score” value was -0.031.
With CAGTGCTA the “PBM E-score” value was 0.0366.
GTCATGCA was tested, and the “PBM E-score” value was 0.268.
CCCCCACG was tested, and the “PBM E-score” value was -0.0968.
ACATCGGA was tested, and the “PBM E-score” value was 0.0356.
In the case of AGCCTGTG, the “PBM E-score” value was -0.177.
With CACTGCCG the “PBM E-score” value was -0.131.
GACTTTAA was tested, and the “PBM E-score” value was 0.248.
For ATCTCTAC, the “PBM E-score” value was -0.0637.
In the case of AGACAGGG, the “PBM E-score” value was -0.179.
For ACAACTTA, the “PBM E-score” value was 0.0367.
With ACCTTGTG the “PBM E-score” value was 0.0552.
In the case of ATAACAAA, the “PBM E-score” value was 0.0086.
With GTCCGTTA the “PBM E-score” value was -0.081.
CGAATAGC was tested, and the “PBM E-score” value was -0.0407.
With AAAATACA the “PBM E-score” value was 0.0146.
With CAGTCACC the “PBM E-score” value was 0.423.
With GAAGGGCA the “PBM E-score” value was -0.131.
In the case of ACGGGTCT, the “PBM E-score” value was -0.178.
In the case of AGGATTTC, the “PBM E-score” value was -0.125.
With AAGTAGCA the “PBM E-score” value was 0.0502.
For CCTGTCAG, the “PBM E-score” value was -0.151.
ATGGAACC was tested, and the “PBM E-score” value was -0.145.
In the case of ACTGCGCC, the “PBM E-score” value was 0.0541.
For ACCCCTCT, the “PBM E-score” value was -0.138.
With AGCTAGAG the “PBM E-score” value was -0.0815.
With CGGCTTTC the “PBM E-score” value was -0.119.
For ACTCCTTC, the “PBM E-score” value was 0.189.
ACCGTGTG was tested, and the “PBM E-score” value was 0.0319.
GAGGTCTA was tested, and the “PBM E-score” value was -0.143.
With AATTACTC the “PBM E-score” value was 0.154.
In the case of CGCAATCC, the “PBM E-score” value was -0.0183.
In the case of GTTAGGCA, the “PBM E-score” value was -0.0628.
For ACTGTCAG, the “PBM E-score” value was -0.0261.
In the case of CGTTGGCA, the “PBM E-score” value was -0.141.
With AACATCGT the “PBM E-score” value was -0.133.
With CTAGAGAC the “PBM E-score” value was -0.0425.
In the case of AACTACCG, the “PBM E-score” value was -0.178.
In the case of GACCTCTC, the “PBM E-score” value was -0.207.
In the case of CTCGGAAG, the “PBM E-score” value was 0.0813.
In the case of GATAAACC, the “PBM E-score” value was -0.00797.
In the case of GGGGTTGA, the “PBM E-score” value was 0.112.
For ACATGTGC, the “PBM E-score” value was 0.0387.
With CGGGTCGA the “PBM E-score” value was -0.00387.
In the case of AAAGGGTG, the “PBM E-score” value was -0.155.
For CCTACCGA, the “PBM E-score” value was -0.0791.
For GATGCTGC, the “PBM E-score” value was -0.173.
For ACGGATTG, the “PBM E-score” value was -0.309.
For GCATTGCA, the “PBM E-score” value was 0.0189.
In the case of AAGGGCAC, the “PBM E-score” value was -0.236.
CGGAGTCC was tested, and the “PBM E-score” value was 0.307.
For CGCGGCTA, the “PBM E-score” value was -0.0469.
In the case of ACGCAACC, the “PBM E-score” value was -0.121.
In the case of CTCTAAAG, the “PBM E-score” value was -0.0556.
For AGCTCATG, the “PBM E-score” value was 0.072.
In the case of ACTCATAA, the “PBM E-score” value was 0.375.
With CTGACGCC the “PBM E-score” value was -0.216.
With CTGCCCCC the “PBM E-score” value was -0.144.
In the case of AAAGGTAG, the “PBM E-score” value was -0.172.
In the case of ACCACCTA, the “PBM E-score” value was -0.107.
For ATCCCTAG, the “PBM E-score” value was 0.0111.
With ACGCGGTC the “PBM E-score” value was -0.0557.
In the case of CACTGAAC, the “PBM E-score” value was 0.048.
AGGACTCC was tested, and the “PBM E-score” value was 0.335.
In the case of AGCTTGCC, the “PBM E-score” value was -0.256.
With AACGAGCC the “PBM E-score” value was -0.115.
CGCCCCAC was tested, and the “PBM E-score” value was -0.235.
AGTATATA was tested, and the “PBM E-score” value was 0.183.
GCGATGGA was tested, and the “PBM E-score” value was -0.103.
With CCACTAGA the “PBM E-score” value was -0.195.
In the case of AGACTGTC, the “PBM E-score” value was 0.149.
In the case of CCGGCTAC, the “PBM E-score” value was -0.233.
With ACGTGGAG the “PBM E-score” value was -0.189.
For CCCACGAG, the “PBM E-score” value was 0.0381.
For CTTGCCTC, the “PBM E-score” value was -0.113.
For CCTCTTCG, the “PBM E-score” value was -0.0971.
ATGCCCTA was tested, and the “PBM E-score” value was -0.222.
With CCAAATAG the “PBM E-score” value was 0.0808.
In the case of CTGAAAAC, the “PBM E-score” value was -0.16.
CGGTGTAC was tested, and the “PBM E-score” value was -0.152.
CATAAATA was tested, and the “PBM E-score” value was 0.0498.
For GAGGTATC, the “PBM E-score” value was -0.136.
For ATACTGAC, the “PBM E-score” value was 0.148.
For TCGAACGA, the “PBM E-score” value was -0.0348.
ACCCATCC was tested, and the “PBM E-score” value was 0.165.
In the case of CATTAGTA, the “PBM E-score” value was 0.257.
For GAGCAATA, the “PBM E-score” value was -0.131.
AGCACTTC was tested, and the “PBM E-score” value was -0.317.
For AAGTGGGG, the “PBM E-score” value was -0.201.
For TCGATAGA, the “PBM E-score” value was 0.0137.
With TCATCAAA the “PBM E-score” value was 0.248.
TCGTTAAA was tested, and the “PBM E-score” value was 0.0153.
With CACATCTC the “PBM E-score” value was 0.04.
In the case of AATCGATA, the “PBM E-score” value was 0.114.
With AGGCACCA the “PBM E-score” value was -0.271.
With ACCGTTAT the “PBM E-score” value was 0.0224.
In the case of ACTCATCA, the “PBM E-score” value was 0.412.
In the case of CCTCCAAG, the “PBM E-score” value was -0.0691.
With ATTAACAA the “PBM E-score” value was 0.202.
For GAACACCA, the “PBM E-score” value was -0.0595.
With AGAGCCCG the “PBM E-score” value was 0.0423.
With ACGCCTAC the “PBM E-score” value was -0.155.
For AATAGTTA, the “PBM E-score” value was -0.0358.
For GAATGACC, the “PBM E-score” value was -0.0646.
CCTTCCGC was tested, and the “PBM E-score” value was -0.177.
For GAGGATCC, the “PBM E-score” value was -0.163.
In the case of GTCTCGTA, the “PBM E-score” value was 0.0767.
For ACACATGC, the “PBM E-score” value was 0.105.
For CTCAAGCA, the “PBM E-score” value was -0.0055.
In the case of AATCATGC, the “PBM E-score” value was 0.432.
TAAACAGA was tested, and the “PBM E-score” value was 0.134.
For ATCACCTA, the “PBM E-score” value was 0.127.
For CATTCTGC, the “PBM E-score” value was 0.0792.
AAGTGGAG was tested, and the “PBM E-score” value was 0.0616.
For ATCCGTTC, the “PBM E-score” value was -0.0715.
With AACGGTGA the “PBM E-score” value was 0.123.
In the case of AATACAAT, the “PBM E-score” value was -0.0991.
With CACGACGA the “PBM E-score” value was 0.044.
With CAAATTAA the “PBM E-score” value was 0.154.
In the case of ATGAGATC, the “PBM E-score” value was 0.0385.
With CAAAACGA the “PBM E-score” value was 0.0931.
AAGCCAAC was tested, and the “PBM E-score” value was -0.149.
With AACCAATG the “PBM E-score” value was 0.0133.
With AATTATAG the “PBM E-score” value was 0.121.
For GCGTATGA, the “PBM E-score” value was 0.104.
With ATCAACAT the “PBM E-score” value was 0.179.
In the case of CTAGCGAG, the “PBM E-score” value was -0.0018.
In the case of AGGTAAGA, the “PBM E-score” value was 0.0735.
ATTTTCAC was tested, and the “PBM E-score” value was 0.0527.
For TGCCTCCA, the “PBM E-score” value was -0.185.
With CAGCGTGC the “PBM E-score” value was 0.0625.
For CCAGTCCC, the “PBM E-score” value was -0.167.
With TTCGTCAA the “PBM E-score” value was 0.0943.
In the case of CCCCATGC, the “PBM E-score” value was -0.284.
AAGAACGT was tested, and the “PBM E-score” value was 0.161.
With CTACTATC the “PBM E-score” value was 0.113.
For ACGGGCAA, the “PBM E-score” value was -0.166.
